# Experimental data published in PubChem BioAssay (NCATS).
# Values joined by “and” are separate entries in the source; they are usually repeats but may differ in a detail not shown here. Equal values may be shown once. This list was built around the results that the source calls inconclusive (neither active nor inactive); the mix of calls is not that of the screen. For some of these results: A potency beside an inconclusive call is a rough fit, not a confirmed value. Active and inactive are the calls of the source. Unless noted, calls follow the shape of the dose curve; as a rule, active = well fitted curve in the direction sought with a large enough effect; inconclusive = small, poorly fitted or top-dose-only effect, or another doubt; inactive = no such curve, though single readings can be large; an effect the other way counts as inactive or inconclusive.
# Legend:
# [1] = NFAT Signaling Pathway (AID 444; active = well fitted curve in either direction with a large enough effect, not every such curve was filed as active; inconclusive = small, poorly fitted or top-dose-only effect, or another doubt;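 also: carbachol stimulus at about its EC50 of 1 µM final; % is scaled to controls: 0 for no effect and ±100 for the full control effect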); settings: Jurkat NFAT-bla M1, carbachol, beta-lactamase ratio, 5 h; at 7.69 µM (top of the series) unless noted
# How it was run: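 Jurkat cells carrying an NFAT-driven β-lactamase reporter and co-transfected muscarinic M1 receptor were treated with compound plus carbachol (1 uM final, an EC50 level) for 5 h at 37 °C. CCF4 loading followed for 1 h at RT; 460/530 nm ratio gave %activity.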
# [2] = target: Mitogen-activated protein kinase 10 (Mus musculus) (UniProt Q61831); experiment: JNK3 AlphaScreen Assay (AID 530; active = well fitted curve in either direction with a large enough effect, not every such curve was filed as active; inconclusive = small, poorly fitted or top-dose-only effect, or another doubt;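 also: kinase came from lysate of stimulated human HepG2 cells; signal reports phosphorylation of biotinylated GST-cJun 1-79 at Ser73 with 10 µM ATP; potency is read from the fitted curve at half-maximal effect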); settings: JNK3 lysate, c-Jun phosphorylation; activity change, negative = inhibition: at 57.1 µM (top of the series)
# How it was run: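 Phosphorylation of biotinylated GST-cJun(1-79) at Ser73 is measured by AlphaScreen proximity luminescence. Enzyme is JNK3 in HepG2 lysates activated with interleukin-1beta and tumor necrosis factor alpha; ATP is 10 uM final.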
# [3] = qHTS Assay for Identification of Small Molecule Agonists for Hypoxia Response Element Signaling Pathway (AID 914; active = well fitted activation curve with a large enough effect in the signal ratio, with a control signal flat, not every such curve was filed as active; inconclusive = small, poorly fitted or top-dose-only effect, or effect the other way, or a change in a side signal; the % refers to the signal ratio; also: potency is read from the fitted curve at half-maximal effect; as to activation: top concentration of the series differs between compounds; % of control where 0% means no effect); settings: ME-180 HRE-bla reporter, beta-lactamase ratio, CoCl2, 17 h; activation: active compounds read high
# How it was run: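 Reporter activity (beta-lactamase, CCF4 460nm/530nm ratio) in HRE-bla ME-180 cells is recorded after 17 h compound exposure with EC50 CoCl2 at 37 degrees Celsius. AC50 values come from titration data.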
# [4] = qHTS Assay for Lipid Storage Modulators (AID 1519; calls by dose curve; also: potency is read from the fitted curve at half-maximal effect; as to activity change, negative = inhibition: % is scaled to controls: 0 for no effect and ±100 for the full control effect); settings: Drosophila S3 cells, BODIPY lipid droplet/cell ratio, laser cytometry, cells loaded with oleic acid; activity change, negative = inhibition: at 57.5 µM (top of the series) unless noted
# How it was run: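 Cells seeded at 5,000 per well were treated with compounds over a concentration series and loaded with oleic acid (400 uM, as added). Lipid droplet fluorescence (488 nm excitation, 500-530 nm channel) was read by laser-scanning cytometry and normalized to 20 uM Triacsin C.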
# [5] = target: Ubiquitin carboxyl-terminal hydrolase 1 (Homo sapiens) (UniProt O94782); experiment: Inhibitors of USP1/UAF1: Pilot qHTS (AID 504865); settings: purified USP1/UAF1, Ub-rhodamine cleavage fluorescence; series mostly up to 54.9 µM;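 also: rhodamine fluorescence freed from ubiquitin-rhodamine substrate followed over time; potency is read from the fitted curve at half-maximal effect; nearly all actives have a fitted effect of over 35% in size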
# Chain of UniProt O94782 (O94782 whole entry, looked up): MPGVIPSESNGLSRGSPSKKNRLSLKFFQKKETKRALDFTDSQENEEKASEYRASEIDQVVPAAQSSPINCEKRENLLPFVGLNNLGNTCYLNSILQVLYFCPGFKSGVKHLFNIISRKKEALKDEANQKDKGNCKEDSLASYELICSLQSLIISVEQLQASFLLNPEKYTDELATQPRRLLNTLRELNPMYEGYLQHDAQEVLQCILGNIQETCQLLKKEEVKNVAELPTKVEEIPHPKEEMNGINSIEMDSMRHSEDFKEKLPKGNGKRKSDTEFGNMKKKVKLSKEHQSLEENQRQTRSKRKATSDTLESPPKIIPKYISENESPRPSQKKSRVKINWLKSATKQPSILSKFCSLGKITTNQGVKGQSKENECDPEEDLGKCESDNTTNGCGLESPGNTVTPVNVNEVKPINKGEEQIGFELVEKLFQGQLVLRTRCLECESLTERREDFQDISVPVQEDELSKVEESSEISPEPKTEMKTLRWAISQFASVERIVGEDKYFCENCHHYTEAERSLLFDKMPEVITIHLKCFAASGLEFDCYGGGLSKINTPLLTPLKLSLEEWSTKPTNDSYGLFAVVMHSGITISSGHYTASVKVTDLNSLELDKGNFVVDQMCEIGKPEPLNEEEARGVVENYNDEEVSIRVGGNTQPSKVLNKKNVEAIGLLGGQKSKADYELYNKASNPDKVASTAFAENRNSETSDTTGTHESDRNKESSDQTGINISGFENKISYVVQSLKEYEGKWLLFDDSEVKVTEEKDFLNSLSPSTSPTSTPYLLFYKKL
# How it was run: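 1nM USP1/UAF1 + cpd, 15 min RT; start w/ Ub-Rho 150nM final; kinetic FL 480/540 nm, 6 reads q60 s. Buffer 50mM HEPES pH 7.8, 0.5mM EDTA, 1mM TCEP, 0.01% Tween-20, 0.1 mg/ml BSA.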
# [6] = Primary qHTS for small molecule stabilizers of the endoplasmic reticulum resident proteome: Secreted ER Calcium Modulated Protein (SERCaMP) assay (AID 1508630); settings: SH-SY5Y GLuc-SERCaMP (Gaussia luciferase released on ER calcium loss) secretion, thapsigargin, luminescence; activity change, negative = inhibition: at 38.4 µM (top of the series) unless noted; also: potency is read from the fitted curve at half-maximal effect; as to activity change, negative = inhibition: % is scaled to controls: 0 for no effect and ±100 for the full control effect
# How it was run: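 The SH-SY5Y reporter protocol was run at 3 concentrations up to 38.3 uM (primary) or 11 concentrations (follow-up): 16 h compound, 100 nM thapsigargin for 4 h, then extracellular luciferase luminescence.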
# [7] = target: 3',5'-cyclic-AMP phosphodiesterase 4B (Homo sapiens) (UniProt Q07343); experiment: qHTS Assay for Inhibitors of PDE-IV (AID 607; active = well fitted activation curve with a large enough effect in the main read-out, with a control signal flat, not every such curve was filed as active; inconclusive = small, poorly fitted or top-dose-only effect, or effect the other way, or a change in a side signal; also: potency is read from the fitted curve at half-maximal effect; as to activation (PDE inhibition): % of control where 0% means no effect); settings: HEK293 ACTOne CNG channel cells, membrane potential fluorescence; activation (PDE inhibition): at 22.9 µM (top of the series)
# Chain of UniProt Q07343 (Q07343 whole entry, looked up): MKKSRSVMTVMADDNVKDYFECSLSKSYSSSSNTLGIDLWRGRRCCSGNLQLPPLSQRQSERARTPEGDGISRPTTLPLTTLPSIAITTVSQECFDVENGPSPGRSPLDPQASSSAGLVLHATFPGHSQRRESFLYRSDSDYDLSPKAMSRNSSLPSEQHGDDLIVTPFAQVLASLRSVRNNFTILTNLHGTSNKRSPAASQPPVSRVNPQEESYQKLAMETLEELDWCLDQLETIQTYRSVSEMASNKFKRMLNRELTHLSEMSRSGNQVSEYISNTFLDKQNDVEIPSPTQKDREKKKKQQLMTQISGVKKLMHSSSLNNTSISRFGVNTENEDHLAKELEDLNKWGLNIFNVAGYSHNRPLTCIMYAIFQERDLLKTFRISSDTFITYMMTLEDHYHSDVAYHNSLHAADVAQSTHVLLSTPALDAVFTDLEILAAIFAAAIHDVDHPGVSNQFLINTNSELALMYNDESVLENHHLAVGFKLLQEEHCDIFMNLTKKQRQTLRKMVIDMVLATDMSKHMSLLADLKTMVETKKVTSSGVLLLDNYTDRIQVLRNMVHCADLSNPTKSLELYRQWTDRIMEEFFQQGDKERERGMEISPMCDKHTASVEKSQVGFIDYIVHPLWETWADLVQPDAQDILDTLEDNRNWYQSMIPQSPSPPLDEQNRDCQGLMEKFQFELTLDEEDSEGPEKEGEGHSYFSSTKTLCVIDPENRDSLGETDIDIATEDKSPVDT
# How it was run: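 Cell-based read-out of cAMP via a modified cyclic nucleotide-gated channel and membrane potential dye (535/590 nm) in HEK293 cells expressing PDE4 endogenously. Compounds tested up to 22.9 uM final; 100 uM RO 20-1724 reference.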
# [8] = Stat Signaling Pathway (AID 446; active = well fitted curve in either direction with a large enough effect, not every such curve was filed as active; inconclusive = small, poorly fitted or top-dose-only effect, or another doubt;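 also: ME-180 cervical cancer cells given 40 pM IL-6 alongside compound; SIE-controlled beta-lactamase reporter measured as 460/530 nm FRET emission ratio; top concentration of the series differs between compounds; % is scaled to controls: 0 for no effect and ±100 for the full control effect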); settings: ME-180 (cervical carcinoma) SIE beta-lactamase reporter, IL-6 stimulated, 5 h; at 7.69 µM (top of the series) unless noted
# How it was run: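 FRET read-out (405 nm excitation, 460/530 nm emission) of a beta-lactamase reporter under a STAT-inducible element in ME-180 cervical carcinoma cells. Cells with compound receive 40 pM IL-6 for 5 h. Values are normalised to AC90 stimulation and AC90 JAK-inhibitor controls.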
# [9] = Confirmation and Secondary Assay for Modulators of Hemoglobin Beta Chain Splicing at IVS2 654 locus (AID 910); settings: HeLa EGFP-654 splicing reporter, GFP fluorescence, 48 h; series mostly up to 38.3 µM;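 also: per-well total GFP intensity by laser scanning cytometry after 2-day treatment; potency is read from the fitted curve at half-maximal effect; potency of activators that raise GFP signal by restoring correct splicing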
# How it was run: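 HeLa cells stably carrying EGFP interrupted by mutant beta-globin IVS2-654 intron (CMV-driven) were treated with compound for 2 days at 37C; corrected splicing was scored as total peak GFP intensity per well (488 nm excitation, 500-520 nm emission).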
# [10] = target: Cytochrome P450 1A2 (Homo sapiens) (UniProt P05177); experiment: p450-cyp1a2 (AID 410; calls by dose curve; also: potency is read from the fitted curve at half-maximal effect); settings: recombinant CYP1A2, luciferin-ME demethylation, luminescence; series mostly up to 57 µM
# Chain of UniProt P05177 (P05177 whole entry, looked up): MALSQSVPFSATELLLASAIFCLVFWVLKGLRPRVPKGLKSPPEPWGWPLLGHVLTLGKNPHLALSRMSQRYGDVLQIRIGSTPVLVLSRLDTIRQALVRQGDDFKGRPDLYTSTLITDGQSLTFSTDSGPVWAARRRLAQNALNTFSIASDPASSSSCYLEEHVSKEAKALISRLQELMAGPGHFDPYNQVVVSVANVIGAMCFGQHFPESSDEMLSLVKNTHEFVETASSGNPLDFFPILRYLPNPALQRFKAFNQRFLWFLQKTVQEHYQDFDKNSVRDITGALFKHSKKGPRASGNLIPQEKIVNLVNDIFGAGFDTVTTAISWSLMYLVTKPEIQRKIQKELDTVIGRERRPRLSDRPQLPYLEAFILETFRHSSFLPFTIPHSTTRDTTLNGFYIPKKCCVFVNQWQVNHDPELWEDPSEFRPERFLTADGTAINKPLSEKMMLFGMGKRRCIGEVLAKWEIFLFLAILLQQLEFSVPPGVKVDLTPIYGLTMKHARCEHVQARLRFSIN
# How it was run: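 O-Demethylation of luciferin 6' methyl ether by human CYP1A2 is monitored as luciferase luminescence. Substrate sits at Km (100uM); enzyme is 20nM. Values are scaled to 57 uM furafylline as maximal inhibition.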
# [11] = qHTS Assay for Identification of Small Molecule Antagonists for NFkB Signaling Pathway (AID 895; active = well fitted inhibition curve with a large enough effect in the signal ratio, with a control signal flat, not every such curve was filed as active; inconclusive = small, poorly fitted or top-dose-only effect, or effect the other way, or a change in a side signal; the % refers to the signal ratio; also: potency is read from the fitted curve at half-maximal effect); settings: NFkB beta-lactamase reporter cells, FRET ratio 460/530, stimulated with 10 pM TNF alpha; activity change, negative = inhibition: at 38.3 µM (top of the series)
# How it was run: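 NFkB-bla ME-180 cervical carcinoma cells with beta-lactamase reporter under NFkB response element; compounds added, then TNF alpha at 10 pM final (EC50), 5 h at 37 C. LiveBLAzer substrate 2 h, room temperature; emission 460/530 nm at 405 nm excitation.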
# [12] = qHTS Assay for Identification of Small Molecule Agonists for Thrombopoietin (TPO) Signaling Pathway (AID 917); settings: TPO signaling pathway reporter cells, agonist qHTS, stimulated with TPO at its EC50; series mostly up to 38.5 µM; also: potency is read from the fitted curve at half-maximal effect
# How it was run: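 Ba/F3 (mouse) + hTPO receptor + GpIIb-promoter luciferase; IL-3 withdrawn overnight; compound + 26 pM TPO (EC50), 24 hrs, 37 C, 5% CO2; Steadylite luminescence, 10 min RT.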
# [13] = target: Muscarinic acetylcholine receptor M1 (Rattus norvegicus) (UniProt P08482); experiment: qHTS Assay for Antagonists of Acetylcholine Muscarinic M1 Receptor: Measurement of IP-One Response (AID 944); settings: CHO-M1 cells, IP-One HTRF, antagonist mode; series mostly up to 46.1 µM; also: potency is read from the fitted curve at half-maximal effect; nearly all actives have a fitted effect of over 75% in size
# Chain of UniProt P08482 (P08482 whole entry, looked up): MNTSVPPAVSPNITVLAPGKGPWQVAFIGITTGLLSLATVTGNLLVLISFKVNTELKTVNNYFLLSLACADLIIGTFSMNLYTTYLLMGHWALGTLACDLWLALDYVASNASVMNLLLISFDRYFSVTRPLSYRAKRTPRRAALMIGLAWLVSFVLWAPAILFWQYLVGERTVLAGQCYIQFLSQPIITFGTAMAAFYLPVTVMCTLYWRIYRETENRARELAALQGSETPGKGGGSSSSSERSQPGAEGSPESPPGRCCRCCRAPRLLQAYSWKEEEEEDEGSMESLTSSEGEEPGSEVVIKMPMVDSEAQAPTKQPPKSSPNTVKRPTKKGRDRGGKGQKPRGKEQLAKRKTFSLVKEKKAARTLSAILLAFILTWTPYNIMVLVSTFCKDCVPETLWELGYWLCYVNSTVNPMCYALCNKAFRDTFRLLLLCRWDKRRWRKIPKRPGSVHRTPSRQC
# [14] = target: Glucocorticoid receptor (Homo sapiens) (UniProt P04150); experiment: GR-EFC Redistribution (AID 451; calls by dose curve; also: potency is read from the fitted curve at half-maximal effect); settings: CHO-K1 GR-EFC translocation, beta-gal luminescence, 2 h
# Chain of UniProt P04150 (P04150 whole entry, looked up, the tested form may be a part): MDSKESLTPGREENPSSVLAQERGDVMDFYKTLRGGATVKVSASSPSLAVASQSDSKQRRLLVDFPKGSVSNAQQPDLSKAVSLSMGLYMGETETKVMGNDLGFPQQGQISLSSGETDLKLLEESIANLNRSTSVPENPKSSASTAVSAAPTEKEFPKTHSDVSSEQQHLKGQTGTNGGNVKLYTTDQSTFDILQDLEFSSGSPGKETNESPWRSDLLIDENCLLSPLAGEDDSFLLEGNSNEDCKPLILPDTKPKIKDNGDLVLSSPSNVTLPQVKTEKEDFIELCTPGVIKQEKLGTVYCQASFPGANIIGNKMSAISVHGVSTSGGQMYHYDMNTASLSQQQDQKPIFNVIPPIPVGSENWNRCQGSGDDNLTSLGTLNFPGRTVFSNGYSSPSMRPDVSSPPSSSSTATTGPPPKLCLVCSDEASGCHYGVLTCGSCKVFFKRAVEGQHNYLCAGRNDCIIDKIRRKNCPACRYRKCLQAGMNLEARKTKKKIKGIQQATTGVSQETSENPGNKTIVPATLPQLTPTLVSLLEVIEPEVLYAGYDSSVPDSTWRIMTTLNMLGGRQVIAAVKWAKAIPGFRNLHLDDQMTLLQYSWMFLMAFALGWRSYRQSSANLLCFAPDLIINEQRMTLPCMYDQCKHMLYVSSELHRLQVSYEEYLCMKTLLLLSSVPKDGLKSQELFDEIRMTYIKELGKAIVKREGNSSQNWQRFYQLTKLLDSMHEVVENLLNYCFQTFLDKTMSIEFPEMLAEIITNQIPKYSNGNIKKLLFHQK
# How it was run: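 CHO-K1 cells stably expressing nuclear-localized β-gal enzyme acceptor and GR fused C-terminally to the enzyme donor fragment; ligand-driven nuclear translocation restores β-gal by complementation. Compounds titrated up to 46 uM final, 2 h at 37 °C; luminescence read.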
# [15] = target: Cytochrome P450 2C9 (Homo sapiens) (UniProt P11712); experiment: qHTS Assay for Inhibitors and Substrates of Cytochrome P450 2C9 (AID 883); settings: recombinant CYP2C9, luciferin-H luminescence, 60 min; series mostly up to 57.1 µM; also: potency is read from the fitted curve at half-maximal effect; nearly all actives have a fitted effect of over 60% in size
# Chain of UniProt P11712 (P11712 whole entry, looked up): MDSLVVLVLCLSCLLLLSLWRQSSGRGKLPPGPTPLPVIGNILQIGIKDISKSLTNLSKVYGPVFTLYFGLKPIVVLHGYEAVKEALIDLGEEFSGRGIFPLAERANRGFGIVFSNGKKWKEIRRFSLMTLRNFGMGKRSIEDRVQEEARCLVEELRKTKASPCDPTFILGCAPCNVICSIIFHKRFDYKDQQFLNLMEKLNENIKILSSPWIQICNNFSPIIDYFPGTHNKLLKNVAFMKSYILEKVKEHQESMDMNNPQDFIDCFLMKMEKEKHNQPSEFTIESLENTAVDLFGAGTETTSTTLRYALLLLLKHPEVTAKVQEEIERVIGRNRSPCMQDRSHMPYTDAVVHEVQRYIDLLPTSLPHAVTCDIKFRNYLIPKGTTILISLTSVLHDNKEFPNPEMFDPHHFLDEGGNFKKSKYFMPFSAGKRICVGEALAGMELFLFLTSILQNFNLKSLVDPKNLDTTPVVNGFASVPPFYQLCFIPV
# How it was run: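 CYP2C9 deoxyluciferin hydroxylation, 37C, 60 min with NADPH regeneration; 10nM enzyme, 100uM Luciferin-H (KM). Glo detection reagent stopped reaction; luminescence normalized to sulphaphenazole (57uM) full inhibition.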
# [16] = target: Cytochrome P450 2C19 (Homo sapiens) (UniProt P33261); experiment: qHTS Assay for Inhibitors and Substrates of Cytochrome P450 2C19 (AID 899); settings: recombinant CYP2C19, luciferin-H EGE luminescence; series mostly up to 57.1 µM; also: top concentration of the series differs between compounds; % is scaled to controls: 0 for no effect and ±100 for the full control effect; nearly all actives have a fitted effect of over 60% in size
# Chain of UniProt P33261 (P33261 whole entry, looked up): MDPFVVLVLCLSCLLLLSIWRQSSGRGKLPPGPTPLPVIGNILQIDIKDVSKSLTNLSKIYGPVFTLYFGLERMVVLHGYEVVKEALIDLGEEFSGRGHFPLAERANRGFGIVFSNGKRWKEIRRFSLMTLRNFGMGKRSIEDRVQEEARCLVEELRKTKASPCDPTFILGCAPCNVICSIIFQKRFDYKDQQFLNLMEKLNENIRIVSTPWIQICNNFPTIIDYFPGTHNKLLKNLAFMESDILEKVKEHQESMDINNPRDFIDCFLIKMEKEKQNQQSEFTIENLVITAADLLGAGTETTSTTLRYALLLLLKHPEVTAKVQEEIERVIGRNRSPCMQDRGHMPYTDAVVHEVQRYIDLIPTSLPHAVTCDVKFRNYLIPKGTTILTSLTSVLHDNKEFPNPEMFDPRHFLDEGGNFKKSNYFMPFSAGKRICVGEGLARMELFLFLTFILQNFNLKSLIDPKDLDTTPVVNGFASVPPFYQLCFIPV
# How it was run: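 In 50mM KPO4, the reaction held 5nM enzyme and KM-level (10uM) Luciferin-H EGE; it ran 60 min at 37C after NADPH regeneration and a 10 min compound preincubation. Luminescence values were scaled to 57uM ketoconazole as complete inhibition.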
# Tags tell the direction and shape of the fitted curve or compound fluorescence and quenching.
smiles,measurement,setting,value
COc1ccc(-c2nc3cnc(N4CCOCC4)nc3n(-c3ccc(OC)cc3)c2=O)cc1,"activity change, negative = inhibition",[1],inconclusive: 32.9% [activator]
same,Potency,[2],"inconclusive: 12.6 µM [activator, partial curve]"
same,Potency,[3],active: 3.16 µM
same,"activity change, negative = inhibition",[4],inconclusive: 6.54%
same,Potency,[5],"inconclusive: 14.1 µM [inhibitor, partial curve, poor fit]"
same,Potency,[6],"inconclusive: 8.91 µM [inhibitor, partial curve, poor fit]"
CC(=O)N1CCC2(CCCN(c3ncccn3)C2)CC1,"activity change, negative = inhibition",[1],inactive: 4.89%
same,"activity change, negative = inhibition",[4],inconclusive: 7.42%
same,Potency,[6],inactive
Cc1nc2cnc(N3CCN(C)CC3)nc2n(CCc2ccccc2)c1=O,"activity change, negative = inhibition",[1],inactive: -16.9%
same,Potency,[7],"inconclusive: 12.6 µM [activator, single point]"
same,"activity change, negative = inhibition",[4],inconclusive: 7.69%
same,Potency,[6],"inconclusive: 25.1 µM [inhibitor, single point]"
COc1ccccc1CCn1c(=O)c(-c2ccc(F)cc2)nc2cncnc21,"activity change, negative = inhibition",[1],inactive: -26.6%
same,Potency,[7],"inconclusive: 12.6 µM [activator, partial curve]"
same,"activity change, negative = inhibition",[4],inconclusive: 5.07%
same,Potency,[6],"inconclusive: 31.6 µM [inhibitor, single point]"
COCCNc1nc(-c2ccc(N(C)C)cc2)nc2ccccc12,"activity change, negative = inhibition",[1],inconclusive: -32.2% [inhibitor]
same,"activity, negative = inhibition",[8],inactive: 4.49%
same,Potency,[9],"inconclusive: 25.1 µM [activator, single point]"
same,"activity change, negative = inhibition",[4],inconclusive: -11.4%
same,Potency,[5],"inconclusive: 63.1 µM [inhibitor, partial curve]"
same,Potency,[6],"inconclusive: 10 µM [inhibitor, partial curve, poor fit]"
O=C(c1cc(C(F)(F)F)cc(C(F)(F)F)c1)N1CCC[C@@]2(CCN(Cc3ccccc3)C2)C1,"activity change, negative = inhibition",[1],inconclusive: -30.7% [inhibitor]
same,"activity change, negative = inhibition",[4],inconclusive: 3.47%
same,Potency,[6],"inconclusive: 28.2 µM [inhibitor, single point]"
C[C@@H](CCc1ccc(O)cc1)NCCc1ccc(O)c(O)c1,Potency,[10],inconclusive: 20 µM [decreasing]
same,Potency,[2],"inconclusive: 39.8 µM [inhibitor, partial curve, poor fit]"
same,Potency,[7],"inconclusive: 19 µM [inhibitor, single point]"
same,Potency,[11],"inconclusive: 0.224 µM [inhibitor, full curve, poor fit]"
same,Potency,[3],"inconclusive: 3.98 µM [inhibitor, full curve] and inconclusive: 794 nM [inhibitor, full curve]"
same,Potency,[12],"inconclusive: 12.6 µM [inhibitor, partial curve]"
same,Potency,[13],"inconclusive: 8.91 µM [inhibitor, partial curve, poor fit]"
same,Potency,[4],"inconclusive: 15.8 µM [rising, single point]"
same,Potency,[6],inactive
O=C(c1ccco1)N1CCC2(CCCN(c3cccc(-c4ccccc4)c3)C2)CC1,"activity change, negative = inhibition",[1],inconclusive: -32.3% [inhibitor]
same,Potency,[7],"inconclusive: 12.6 µM [rising, single point]"
same,Potency,[4],"inconclusive: 39.8 µM [inhibitor, single point]"
same,Potency,[6],inactive
O=C(c1cnccn1)N1CCC2(CCN(Cc3cc(C(F)(F)F)cc(C(F)(F)F)c3)CC2)CC1,"activity change, negative = inhibition",[1],inconclusive: -50.9% [inhibitor]
same,Potency,[4],inactive
same,Potency,[6],inactive
Cn1c(=O)c(CCc2ccccc2)nc2cnc(N3CCOCC3)nc21,"activity change, negative = inhibition",[1],inactive: 10.9%
same,"activity, negative = inhibition",[8],inactive: 1.67%
same,Potency,[7],inactive
same,"activity change, negative = inhibition",[4],inconclusive: 6.94%
same,Potency,[6],inactive
Cc1noc(C)c1C(=O)N1CCC2(CC1)CCN(c1ncccn1)CC2,"activity change, negative = inhibition",[1],inactive: 5.74%
same,Potency,[4],inactive
same,Potency,[6],inactive
O=c1c(CCc2ccccc2)nc2cnc(Nc3ccccc3)nc2n1C[C@H]1CCCO1,"activity change, negative = inhibition",[1],inconclusive: 62.1% [activator]
same,Potency,[14],inconclusive: > 46 µM [single point]
same,Potency,[7],"inconclusive: 12.6 µM [activator, single point]"
same,activation,[3],inconclusive: 182%
same,"activity change, negative = inhibition",[4],inconclusive: -42.7%
same,Potency,[6],"inconclusive: 31.6 µM [inhibitor, single point]"
COc1ccccc1N1CCN(CCCCN2C(=O)CCC2=O)CC1,Potency,[10],inconclusive: 39.8 µM [decreasing]
same,Potency,[15],active: 3.98 µM
same,Potency,[4],inactive
same,Potency,[6],inactive
COc1ccccc1CN1CC2(CCN(S(=O)(=O)c3ccccc3)CC2)C1,"activity change, negative = inhibition",[1],inconclusive: -53.8% [inhibitor]
same,Potency,[16],inactive
same,"activity change, negative = inhibition",[4],inconclusive: 4.72%
same,Potency,[6],inactive
